# Results as given in the supplement of paper PMC11417369.
# The other results are listed elsewhere or left out.
# Tested on: PfAP2-HC AP2 domain (GST-tagged)
# Assay: gcPBM binding intensity (ln(normalized median fluorescence intensity)); higher = stronger DNA binding
# In short: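 Binding intensity is defined as the maximum Masliner-normalised natural-log median intensity across replicate spots for either probe orientation. It was measured on an Agilent 4 × 180k array of primer-extended double-stranded 36-bp intergenic genomic probes and negative controls, to which GST-tagged P. falciparum DNA-binding domains made in E. coli were applied for 1 h in 1× PBS with 1% milk, 0.2 mg/ml BSA, 0.5% salmon testes DNA and 0.03% Triton X-100. Detection was by Alexa488 anti-GST antibody and scanning at 488 nm.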
row,Sequence,gcPBM binding intensity (ln)
1,TTTTATGATATTTACACACAAACGTGAGATAGCTCA [CACACA_site2311],9.6
2,AATATAATATCTATAATATAAAAAAAACAAAAAAAA [CACACA_negctrl_site875],9.67
3,AAAATATGTTAATATTGTACTTAAATAAAAAAAATA [XGTACX_site7152],9.56
4,ATTCTTAAAATAAAATGTACGAAAAAAAAAAAAAAA [XGTACX_site1657],9.32
5,TTTAAAAAATTATATTCACACACATACACATATATA [CACACA_site8076],10.1
6,ATAAATCGATAAAATATATGCTACATGAATAAATAA [XGTACX_negctrl_site604],9.75
7,ATATTTTTATATAATGAACACACATATTATATCATT [CACACA_site8446],9.81
8,TAAAAGGATACATATACACACATATATATATATATA [CACACA_site2791],9.85
9,TTCTTCAACAAAAAAATAAAAATAAAATAATAAAAA [GTGCAC_negctrl_site619],9.41
10,TATTTTACATAAAAGAAAAAAAAAAAAAAAAAAAAA [CACACA_negctrl_site1460],8.78
11,TTTATAATAAAAAATACATGCAGTTATATATAATAA [TGCATGCA_site654],9.56
12,ATATTGAAAATTTGAAGTACATCTAAATATATTATT [XGTACX_site7817],9.37
13,TATATATAAATAAACACACACAAATATAATAAAAAA [CACACA_site3526],10.9
14,ATCCGTGTCTGAAATACACACATGACAATGTGAATG [CACACA_site6556],9.7
15,ATAATGTGTTTGGTATTCTTGATAGATAGTTTTGTG [CACACA_negctrl_site68],9.82
16,CCTTCCTTGAATTTTACATGCAAAAAATTATAAAAC [TGCATGCA_site663],9.34
17,TATATATTATATATTTGTACATATATATAAAAACTT [XGTACX_site449],9.47
18,TTTTTTCAATATTATATCCAAAAATATTTGTAAATA [TGCATGCA_negctrl_site596],9.31
19,TTATTAAAATATACATTTGAAAGTAATCTTATTTAA [XGTACX_negctrl_site431],9.22
20,ATTTTTATTTTTTTTGTGCACATTTTCATTTTCTAT [GTGCAC_site9580],9.94
21,TATAAAAAAATAATAAAATAATAAAATATATAAATA [TGCATGCA_negctrl_site394],9.6
22,TTTTAAAAGGTAAAATGTACATATATAATATATACA [XGTACX_site1222],9.56

row,Sequence,gcPBM binding intensity (ln)
1,ATTCTATTATCCTTTGCACACAAAATAAATGAAAAA [CACACA_site3030],9.75
2,TAATACTTAGAGAAAAGTACGTATGAACTTATGTAA [XGTACX_site5504],9.59
3,TTTTTTTTTTTTTTTTGTACTTATAAAATAACATGT [XGTACX_site134],9.03
4,TATTTAAATACTGACGCATGCATAAGGAGTAATAGT [TGCATGCA_site465],9.82
5,AAACATTTATGAAGGTGTACAAAAATGAATTAAAAA [XGTACX_site7035],9.88
6,AGTCCTTACACATATATTAAATATGTGTATATATAT [XGTACX_negctrl_site336],9.98
7,TTTTGTTTAGTGTATTGTACAATATATCTTTATTTT [XGTACX_site5163],9.83
8,TATTAATACGGACACACACACACACTAGATAAAATA [CACACA_site4295],10.8
9,AAAAAAAAAAAAAAAAGTACATATATATATATAATT [XGTACX_site4437],9.46
10,CTTTCAAAATTATTTATAGTATCTCATATTTTAGTA [XGTACX_negctrl_site72],9.35
11,TTTATTAATAAAAAGGTGCAATCAGGAAAAATTATC [GTGCAC_site9626],9.56
12,ATCCTTTATAAATAAGTGCATATAAAAAATAATATT [GTGCAC_site9759],9.49
13,ACACATATGTATATATGTACTTATATATATATATAT [XGTACX_site8632],9.71
14,TTTTAGCTATTTTAATATAATGAAGCAAAAAATAAA [TGCATGCA_negctrl_site576],9.3
15,ATAATAAATTCTACGCGTACAAAACCATGAACATTA [XGTACX_site7505],9.79
16,ATGTATTACTTAAATATATGAAACATATTACTTTTA [CACACA_negctrl_site496],9.61
17,AATTATATATAAAAAGTGCAAAACGATAATTCATCA,9.92
18,AATATATATATATTATGTACACATAGAAATATATTA [XGTACX_site3874],9.62
19,CATACATACAAACACACACACATATAAATACATACA [CACACA_site4625],11.2
20,ACATTGTTGGTGTTAGTGCATTGGTAAATATTATAT,9.85
21,AAAAAAAAAAAAAAAACACACATATCTGTATTTATA [CACACA_site5760],9.75
22,AAAAAAAAAATTTTCGTGCACATAAGAAAATTTAAA [GTGCAC_site9788],9.58

row,Sequence,gcPBM binding intensity (ln)
1,ATAGTATATCAAAATTTGTAAATCATTCTCAATAAA [CACACA_negctrl_site430],9.36
2,ACCTACATACATATGTGTACTTATTTGTATTCACTG [XGTACX_site7124],10.2
3,TTTATAAACAAATGAACACACAAACATATTTATATA [CACACA_site7478],9.91
4,ATAATATATGAAAAAACGATTTTTTCATTTTAAATA [XGTACX_negctrl_site146],9.51
5,CACACGTAAAAGTATAATATAAAAAAGGTATACACT [CACACA_negctrl_site127],9.79
6,TATTTAAAGATATATACACACATTTGATATTATTAT [CACACA_site6509],9.74
7,TTATTTGAACAATATGCACACATTTTATTTATTTTA [CACACA_site3420],9.84
8,TTAATGTTGTATGGTTGTACAATAAGCCCCTTTTAA [XGTACX_site2484],9.54
9,TATATATATATGTGCACACATAATAAAAAAAAAAAT [CACACA_site3831],10.2
10,TATAAAGCATATTAAAGTACTTATTTTCCTTTTTCT [XGTACX_site8892],9.56
11,TTTTATTTTATTCTTAAATAAGTATTATAAAATATG [XGTACX_negctrl_site201],9.2
12,TACCCTGATCGGCATGCATGTAAGTAACAAATATAT [TGCATGCA_site153],9.56
13,ATTTAGAAATATATTTGTACATATATATATATATAT [XGTACX_site7129],9.75
14,ATTCAAACAAATTAATGTACATATATATAAGATATT [XGTACX_site1531],9.62
15,ATAAAAAGAAAAAAGGGTACACTATACTATTTAAAA [XGTACX_site4467],9.59
16,ATATATACATATAAATGTACATAATTATTATGCACA [XGTACX_site1261],9.54
17,CTACATATTAATATATGTACATATTAATATATCTAA [XGTACX_site7118],9.33
18,TGTTGATAAAAAATAAAAAATAAAAAAATAAAATAT [TGCATGCA_negctrl_site559],9.71
19,TATGATGATATAAAAACACACACATATAATATAATA [CACACA_site8321],10.1
20,TTAAAGCTTACATATACACACATACATAAATTCATA [CACACA_site8785],9.94
21,GTAAAATAAAATATATGTACATATGTATATGAGGTA [XGTACX_site3743],10
22,GACATATTCCCCCCCACACACACACCCACATACATA [CACACA_site2302],11.1

row,Sequence,gcPBM binding intensity (ln)
1,TTTTGATCATCCAAAATATCTTCATCTGAACTACTA [CACACA_negctrl_site939],9.6
2,TTTTTATATAACCTTCTTAATTCTTTTTTTTTTTTT [XGTACX_negctrl_site591],9.47
3,AAAACAAAATTATGAACATGCAAGGTAAAATTGTAA [TGCATGCA_site775],10.1
4,AATATAATATAATGCACACATAAAAAAAAAATCAAA [CACACA_site122],9.89
5,AAAATATATATATATATATATATATGTATACTCCTA [XGTACX_negctrl_site312],9.72
6,TTATTTATAAATATTAATTTTTTTTTTTTTTTTTTT [XGTACX_negctrl_site105],9.27
7,TTTTATGTTTCAAAATGTACATTAAAATATACCATA [XGTACX_site1713],9.4
8,CATATGCATACTATACGTACATATGTATATAATATA [XGTACX_site7738],9.7
9,TTTTATTATTGAATACTAGTATATATAATATGAAGA [CACACA_negctrl_site910],9.41
10,ATATATATATTTTTTAAACACACACCGAAATATTTG [CACACA_site8937],9.99
11,TTAATTAAAACGAATACACACATAAATATATAAAAG [CACACA_site1254],9.87
12,GTACAAATGTTGTGTATATATACACACATACATATA [XGTACX_negctrl_site276],9.86
13,AACTTACTTGGACATACACACATATAGATTTATATA [CACACA_site7412],9.88
14,ATGTAGTTTTATCAGTGTACAAGTATTTTATCACAT [XGTACX_site8958],9.82
15,TATTATTATCTTACCACACACAATGTACGAAAAGAT [CACACA_site352],9.92
16,AAACATATATATATTATATATATATATATATATATG [GTGCAC_negctrl_site182],9.44
17,TAACATATAATATTCACACACATATATATATTATAT [CACACA_site988],10.2
18,AAATTAAAAAGACATTCACACATTTTCATCTTAACA [CACACA_site5221],9.68
19,TAAAATATTATAAAATGTACAAAACATATAAATATA [XGTACX_site5315],9.65
20,TGTAGGTATTATTATACACACATAAAAAAAAAAAAA [CACACA_site3598],9.71
21,TATATAAACATATAAACATGCAATATATATATGTTA [TGCATGCA_site765],9.57
